Measured values published in PubChem BioAssay AID624417 (National Center for Advancing Translational Sciences (NCATS), 2012).
Among all 410,000 compounds or so, about 6,400 (1.6%) were called active. Inconclusive results, whose numbers are uncertain, are shown with a selection of clear calls. The call rests on the fitted dose curve; in most records, active means well fitted inhibition curve with a large enough effect; inconclusive means small, poorly fitted or top-dose-only effect; inactive means no such curve, though single readings can be large or run the other way. Potencies of inconclusive entries are doubtful fits and often do not repeat.

Target: Glucagon-like peptide 1 receptor (Homo sapiens) (UniProt P43220)
Test: qHTS of GLP-1 Receptor Inverse Agonists (Inhibition Mode); further: nearly all actives have a fitted effect of over 55% in size
Settings: HEK293 GLP-1R CRE-luciferase, luminescence, 24 h, GLP-1R form is constitutively active; activity change, negative = inhibition: at 38.3 µM (top of the series) unless noted
Outline: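 GLP-1R inverse agonism mode: basal reporter luminescence in engineered HEK293 cells measured after one day of compound exposure at 37 deg C, with a 12 min room-temperature detection step.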
On the % scale 0 is the no-effect control and ±100 the full control effect; potency means the concentration at half of the fitted maximal effect; tags describe the fitted curve by direction and shape.

Chain of UniProt P43220 (P43220 whole entry, looked up): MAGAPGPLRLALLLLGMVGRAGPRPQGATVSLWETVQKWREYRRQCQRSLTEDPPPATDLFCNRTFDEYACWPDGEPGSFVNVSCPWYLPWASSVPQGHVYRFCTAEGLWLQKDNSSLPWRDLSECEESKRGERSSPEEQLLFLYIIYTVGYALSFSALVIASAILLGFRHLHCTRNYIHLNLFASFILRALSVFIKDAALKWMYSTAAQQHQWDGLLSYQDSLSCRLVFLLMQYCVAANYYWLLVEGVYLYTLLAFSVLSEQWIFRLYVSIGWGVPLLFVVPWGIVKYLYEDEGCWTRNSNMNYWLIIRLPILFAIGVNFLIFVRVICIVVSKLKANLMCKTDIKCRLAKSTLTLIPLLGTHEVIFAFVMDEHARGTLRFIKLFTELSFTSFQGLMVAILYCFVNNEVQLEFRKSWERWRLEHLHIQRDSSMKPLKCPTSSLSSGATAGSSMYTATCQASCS

Potency, inactive:
CC(=O)N1CCc2c(sc3c2c(=O)n(-c2ccccc2)c(=O)n3CC(=O)Nc2ccccc2C)C1
Cc1cccc(N2CCN(c3cc(C)nc4c(-c5ccc(Cl)cc5)c(C)nn34)CC2C)c1 (configuration not stated)
COc1ccc(S(=O)(=O)N(C)C)cc1NC(=O)COC(=O)c1n[nH]c2ccccc12
COc1cc(/C=C/C(=O)c2ccc([N+](=O)[O-])o2)ccc1O
COc1cccc(-c2nn(C)c3sc(C(=O)NCCc4ccc(Cl)cc4)cc23)c1
CC1Cc2cc(S(=O)(=O)NCCC(=O)NCc3ccc(F)cc3)ccc2N1C(=O)C1CC1 (configuration not stated)
COC(=O)c1c(SCC(=O)Nc2cc(C)cc(C)c2)[nH]c2ccccc2c1=O
Nc1ccc(C(=O)Nc2ccc3nc(-c4ccncc4)[nH]c3c2)cc1
O=C(Cc1c(O)c2ccccc2[nH]c1=O)NCc1ccccc1F

Potency, inconclusive:
O=c1c(Br)ccc(Br)cc1Br 3.98 µM [inhibitor, full curve, poor fit]
NS(=O)(=O)c1ccc(NNC(=O)c2ccc(F)cc2F)cc1 3.98 µM [inhibitor, partial curve, poor fit]
OC(C#Cc1ccccn1)c1cccs1 (configuration not stated) 15.8 µM [inhibitor, partial curve, poor fit]
O=C(Nc1ccccc1O)c1c(O)c2c([nH]c1=O)CCCC2 6.31 µM [inhibitor, partial curve, poor fit]
Cc1noc(/C=C/N(C)C)c1S(=O)(=O)N(C)CC(=O)N1CCc2ccccc21 7.94 µM [inhibitor, partial curve, poor fit]
COc1ccc(NC(=O)C[C@H]2C(=O)N(CCc3ccccc3)C[C@@H]2Cc2ccccc2)cc1 10 µM [inhibitor, single point]
Cc1ccc(S(=O)(=O)NCCC(=O)N2CCC(Cc3ccccc3)CC2)cc1 10 µM [inhibitor, partial curve, poor fit]
CCOC(=O)C1(C)Oc2ccccc2C(c2ccc(OC)cc2)=C1C(=O)OC (configuration not stated) 28.2 µM [inhibitor, single point]
O=C(Nc1cccc(Cl)c1)c1cncn1-c1ccc(F)cc1 22.4 µM [inhibitor, single point]
CCOC(=O)C(c1ccccc1)C(Nc1ccc(Cl)c(Cl)c1)c1ccccn1 (configuration not stated) 8.91 µM [inhibitor, partial curve]
OC(COc1ccccc1)CN1CCC(Cc2ccccc2)CC1 (configuration not stated) 12.6 µM [inhibitor, partial curve, poor fit]
COc1ccc(/C=C2\SC(=O)N(CC(=O)Nc3ccc(F)cc3)C2=O)cc1O 20 µM [inhibitor, single point]
CCn1c(N2CCN(S(=O)(=O)c3ccc(F)cc3)CC2)nc2ccccc21 10 µM [inhibitor, single point]
O=C(CCN1C(=O)CSc2ccccc21)Nc1ccc(C(F)(F)F)cc1 28.2 µM [inhibitor, single point]
CC1C(=O)N2CCCc3cc(NC(=O)C(=O)NCCc4ccc(F)cc4)cc1c32 (configuration not stated) 28.2 µM [inhibitor, single point]
CCCNC(=O)C1(C)CCCN(Cc2ccc(-c3ccccc3)o2)C1 (configuration not stated) 28.2 µM [inhibitor, single point]
Cc1ccc(O)c(Cc2cc(C)cc(Cc3cc(C)ccc3O)c2O)c1 8.91 µM [inhibitor, partial curve, poor fit]
O=C1C(Nc2ccc(O)cc2)=C/C(=N/S(=O)(=O)c2cccs2)c2ccccc21 6.31 µM [inhibitor, partial curve, poor fit]
O=C(/C=C/c1ccc(Cl)cc1)Nc1ccc(CN2CCOCC2)cc1 10 µM [inhibitor, partial curve, poor fit]
Cc1ccc(CSc2nc(-c3cccs3)ccc2C#N)cc1 28.2 µM [inhibitor, single point]
CCOc1ccc(NC(=O)CSc2nnc(-c3ccccc3Cl)n2Cc2ccco2)cc1 11.2 µM [inhibitor, single point]
COc1ccc(/C=C(/C(=O)Nc2ccccc2C(=O)NC(C)C)c2ccccc2)cc1 14.1 µM [inhibitor, single point]
Cc1ccc(C(=O)N(CC(=O)NC2CCCC2)c2ccccc2C)s1 31.6 µM [inhibitor, partial curve, poor fit]
O=C(C1CCCN(S(=O)(=O)c2cccc3nsnc23)C1)N1CCc2ccccc21 (configuration not stated) 8.91 µM [inhibitor, partial curve, poor fit]
COc1ccc(-c2nc(CN3CCN(Cc4cccc(Cl)c4)CC3)c(C)o2)cc1 12.6 µM [inhibitor, single point]
Cc1cc2nc(-c3ccc(SCC(=O)Nc4ccc5c(c4)OCCO5)nc3)[nH]c2cc1C 10 µM [inhibitor, partial curve, poor fit]
N#Cc1ccc(Nc2nc(-c3ccccc3)cs2)cc1 28.2 µM [inhibitor, single point]
O=C(Cc1ccccc1)NCC(=O)Nc1cc(Cl)ccc1Cl 7.08 µM [inhibitor, partial curve]
COc1ccc(CN(C(=O)/C=C/C(=O)c2ccc(OC)cc2O)C(C(=O)NC2CCCCC2)c2ccncc2)cc1 (configuration not stated) 28.2 µM [inhibitor, single point]
CCOc1ccc(C(C)(C)C)cc1S(=O)(=O)n1nc(C)cc1C 14.1 µM [inhibitor, single point]
O=C(NN=C1CCCCCC1)NC1CCCCC1 2.82 µM [inhibitor, partial curve]
CCCC(=O)Nc1ccc2c(c1)nc(CN1CCN(C(=O)OCC)CC1)n2CC 4.47 µM [inhibitor, partial curve]
Cc1ccc(C(=O)C(C)Oc2cccc(NC(=O)c3ccco3)c2)cc1 (configuration not stated) 28.2 µM [inhibitor, single point]
CN(C)c1cccc(NC(=O)c2cccc3c(-c4ccc(F)c(F)c4)coc23)c1 28.2 µM [inhibitor, single point]
CNc1ccccc1C(=O)OC(C)C(=O)Nc1ccc(Cl)cn1 (configuration not stated) 28.2 µM [inhibitor, single point]
CC(NC(=S)NCc1ccc(F)cc1)C12CC3CC(CC(C3)C1)C2 (configuration not stated) 5.01 µM [inhibitor, full curve, poor fit]
Cc1cc(Oc2ccc(Br)cc2)nc(SCC(=O)c2ccccc2)n1 8.91 µM [inhibitor, partial curve, poor fit]
Cc1ccc(S(=O)(=O)Cc2cc(F)c([N+](=O)[O-])cc2[N+](=O)[O-])cc1 14.1 µM [inhibitor, partial curve, poor fit]
O=C(/C=C/Nc1ccc(Nc2ccccc2)cc1)c1cccs1 28.2 µM [inhibitor, single point]
C[C@H](CO)N1C[C@H](C)[C@@H](CN(C)Cc2ccc3c(c2)OCO3)Oc2cc(Br)ccc2S1(=O)=O 28.2 µM [inhibitor, single point]
COc1ccccc1NS(=O)(=O)c1ccc(Cl)c(NC(=S)NC(=O)C2CCCC2)c1 8.91 µM [inhibitor, partial curve, poor fit]
Cc1cc(C)c2sc(N(CCCN(C)C)C(=O)c3ccc(S(=O)(=O)N(C)C4CCCCC4)cc3)nc2c1 5.01 µM [inhibitor, full curve, poor fit]
Cc1nn(-c2ccccc2)nc1C(=O)Nc1cccc(C(=O)NC2CC2)c1 10 µM [inhibitor, single point]
CN(C)c1ccc(-c2ccnc3c2CC(C)(C(=O)Nc2ccc(Cl)cc2)O3)cc1 (configuration not stated) 8.91 µM [inhibitor, partial curve, poor fit]
COc1ccc(CN2CCN(C(=O)C3CCC(CNS(=O)(=O)c4ccccc4)CC3)CC2)c(OC)c1OC (configuration not stated) 6.31 µM [inhibitor, full curve, poor fit]
COc1ccc2nc(Nc3nc4cc5c(cc4s3)OCO5)sc2c1 11.2 µM [inhibitor, partial curve, poor fit]
CCN1CCN(C(=O)c2ccc3c(c2)N(Cc2ccc(C)cc2)CCS3)CC1 7.94 µM [inhibitor, partial curve, poor fit]
CC(=O)c1ccc(C(=O)NC2CCCN(Cc3ccc(Cl)cc3)C2)s1 (configuration not stated) 11.2 µM [inhibitor, single point]
CCOC(=O)c1cnc2ccc(C)cc2c1N(C)Cc1ccccc1 10 µM [inhibitor, partial curve, poor fit]

Potency, active:
Cc1ccc(C)c(OCCC(=O)NCCc2ccc(Cl)cc2)c1 10 µM
O=C(c1cccs1)N1N=C(c2ccccc2)CC1c1ccccc1O (configuration not stated) 8.91 µM
O=C(NCc1cccc(Cl)c1)c1cc(COc2ccc3ncccc3c2)on1 10 µM

Activity change, negative = inhibition, inconclusive:
O=C(c1ccccc1)c1ccc(OCC(O)CNCc2ccc(F)cc2)cc1 (configuration not stated) -72.2% [inhibitor]
